In all, about 310,000 compounds went through this assay and about 14,000 (4.5%) showed an effect of 50% or more. The effect is printed as a negative number. This is one part of the list.
These compounds were tested against human ether-à-go-go-related gene (hERG) potassium channel (human, UniProt Q12809) (assay: primary screen, population patch clamp on CHO cells stably expressing hERG).
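Note: peak tail current of the secondary pulse compared with the same well before compound.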

Chain of human ether-à-go-go-related gene (hERG) potassium channel (Q12809 whole entry, looked up): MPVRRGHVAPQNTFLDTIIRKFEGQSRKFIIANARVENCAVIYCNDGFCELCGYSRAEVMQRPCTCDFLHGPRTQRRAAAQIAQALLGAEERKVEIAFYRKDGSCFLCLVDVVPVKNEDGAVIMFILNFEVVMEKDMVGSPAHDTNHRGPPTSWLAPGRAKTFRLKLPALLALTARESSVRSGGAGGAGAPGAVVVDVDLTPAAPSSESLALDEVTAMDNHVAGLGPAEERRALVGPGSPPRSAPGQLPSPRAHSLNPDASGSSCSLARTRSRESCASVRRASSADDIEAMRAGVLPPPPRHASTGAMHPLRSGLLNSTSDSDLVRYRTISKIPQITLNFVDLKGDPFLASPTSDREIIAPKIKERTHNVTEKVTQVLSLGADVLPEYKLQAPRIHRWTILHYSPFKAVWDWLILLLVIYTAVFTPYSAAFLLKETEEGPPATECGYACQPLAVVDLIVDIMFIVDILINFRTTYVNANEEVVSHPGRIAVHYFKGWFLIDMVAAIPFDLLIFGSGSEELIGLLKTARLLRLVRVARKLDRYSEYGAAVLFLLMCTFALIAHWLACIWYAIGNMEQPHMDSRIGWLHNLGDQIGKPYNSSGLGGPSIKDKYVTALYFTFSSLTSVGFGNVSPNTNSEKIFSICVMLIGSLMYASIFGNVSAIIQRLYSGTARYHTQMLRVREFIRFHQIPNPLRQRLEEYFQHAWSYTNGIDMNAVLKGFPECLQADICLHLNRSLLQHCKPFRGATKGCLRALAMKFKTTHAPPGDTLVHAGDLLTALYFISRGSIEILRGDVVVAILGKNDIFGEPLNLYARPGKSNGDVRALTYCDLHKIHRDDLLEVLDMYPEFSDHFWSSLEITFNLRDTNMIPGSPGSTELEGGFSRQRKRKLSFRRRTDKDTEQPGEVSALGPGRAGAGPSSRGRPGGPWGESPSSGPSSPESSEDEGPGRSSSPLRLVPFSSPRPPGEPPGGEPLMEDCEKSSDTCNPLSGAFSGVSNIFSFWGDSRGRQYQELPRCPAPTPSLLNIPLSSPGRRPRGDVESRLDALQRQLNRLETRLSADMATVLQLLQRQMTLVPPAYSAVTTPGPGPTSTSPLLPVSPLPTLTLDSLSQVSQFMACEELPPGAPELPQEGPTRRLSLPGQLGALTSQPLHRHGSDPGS

Compound | hERG current change (%, negative = inhibition) at 10uM
CCOC(=O)C1(Cc2ccccc2)CCN(Cc2cn[nH]c2-c2ccccc2)CC1 | -28.8%
CCN(CC)N=Nc1ccc(S(=O)(=O)Nc2nc(C)cc(C)n2)cc1 | 10.3%
CC(=O)Nc1cccc(NC(=O)CSc2nnc(NC(=O)c3ccco3)s2)c1 | 4.45%
O=C(NCc1ccccn1)Nc1cccc([N+](=O)[O-])c1 | 11.6%
O=C(O)C1=C[C@@H](c2ccccc2)C[C@@H](OCCCCO)O1 | 8.4%
COc1ccc(-n2nc(C(=O)NCC(=O)N3CCCC(C)C3)c3ccccc3c2=O)cc1Cl (centres unmarked) | 1.04%
COc1ccc(C(=O)COC(=O)CN2C(=O)C3C4C=CC(C5CC45)C3C2=O)cc1 (centres unmarked) | -36.7%
CCOC(=O)C1=NNC2(c3ccc(C)cc3)C(=O)N(c3ccc(Cl)cc3)C(=O)C12 (centres unmarked) | -8.79%
O=C(CSc1nnc(-c2cccnc2)n1Cc1ccccc1)N1CCOCC1 | 4.78%
Cc1c(C(=O)O)cccc1-n1c(C)cc(C=O)c1C | 21%
O=C(CCC(=O)NNC(=O)COc1ccccc1)NCc1ccccc1 | 16.3%
COc1ccc(NC(C)=O)cc1NC(=O)CSc1nnc(-c2cccnc2)n1C | 8.23%
O=C(/C=C/c1ccccc1[N+](=O)[O-])NCCc1ccc(F)cc1 | 0.179%
Cc1ccc(C(=O)CSc2nc3ccccc3c(=O)[nH]2)cc1 | -10.9%
O=C(C[n+]1cc(-c2ccccc2)n2c1CCC2)OCc1ccccc1.[Br-] | -15.2%
C=CCSC1=N/C(=C\c2ccc3c(c2)OCO3)C(=O)S1 | 4.4%
COc1ccccc1N1CCN(S(=O)(=O)c2ccc3c4c(cccc24)C(=O)N3)CC1 | -11.8%
O=C(/C=C/c1ccco1)NCC(=O)N/N=C/c1ccccc1[N+](=O)[O-] | -23.1%
CCCCCC(=O)NC(=S)NC1C2CC3CC(C2)CC1C3 (centres unmarked) | 11.2%

Compound | hERG current change (%, negative = inhibition) at 10uM
Clc1ccccc1C1=Nn2c(nnc2-c2ccco2)SC1 | -25.4%
COc1cc(/C=C(\C#N)C(=O)NCC2CCCO2)ccc1OC(C)C (centres unmarked) | 4.21%
Cc1cc(C)nc(NS(=O)(=O)c2ccc(NC(=O)c3ccc(S(=O)(=O)N(C)C)cc3)cc2)n1 | 13.2%
CC(O)[C@H](NC(=O)C1(c2ccccc2)CCN(C(=O)OC(C)(C)C)CC1)C(=O)O (some centres unmarked) | 8.23%
CCOC(=O)c1cc(-c2ccc(Cl)s2)[nH]n1 | -5.26%
COc1ccc(S(=O)(=O)/N=C2/NC(=O)/C(=C\c3ccco3)S2)cc1 | -2.98%
COc1cc(C(c2nnnn2C(C)(C)C)N2CCN(C)CC2)cc(OC)c1OC (centres unmarked) | 6.02%
Cc1ccc(S(=O)(=O)Nc2ccc(C(=O)NCCCn3ccnc3)cc2)cc1[N+](=O)[O-] | -12.7%
CCOc1ccccc1NC(=S)Nc1ncccc1C | -0.779%
CCOC(=O)CCSCC(=O)Nc1cc(C)on1 | -3.91%
O=C(CSCc1cccc(Cl)c1)NCc1ccc2c(c1)OCO2 | -22.6%
N#Cc1nc(-c2ccco2)oc1NCc1ccccc1Cl | 10.4%
O=C(NCc1ccco1)c1ccc(Cl)c(S(=O)(=O)N2CCc3ccccc32)c1 | -20.6%
CC(=O)c1c[nH]c(C(=O)NC2CCCCCC2)c1 | 1.09%
C=C1C(=O)O[C@@H]2[C@H]1CC[C@H](C)[C@]1(O)CCC(=O)[C@@]21C | 27.4%
Nc1nnc(SCc2coc(-c3ccc(Cl)cc3)n2)s1 | 18.4%
O=C(Nc1ccccc1C(=O)NCc1ccccc1)c1ccccc1 | 3.65%
O=[N+]([O-])c1ccc(N2CCc3ccccc3C2)cc1 | -20.7%
CNC(=O)C(C)c1ncc(C(F)(F)F)cc1Cl (centres unmarked) | 17.6%

Compound | hERG current change (%, negative = inhibition) at 10uM
O=c1c2[nH]c3ccccc3c2ncn1CCN1CCNCC1 | 4.97%
Cc1nn2c(N3CCOCC3)c3c(nc2c1-c1ccccc1)CCCC3 | -14.8%
O=C(N/N=C/c1cccnc1)c1cccc(F)c1 | 2.67%
CC(=O)c1c(C)[nH]c(C(=O)Nc2ccc(C)c(S(=O)(=O)Nc3ccc(C)cc3C)c2)c1C | -10.9%
CNC(=O)N(O)C1N(/N=C/c2ccc(C)cc2)C(=S)SC1(C)C (centres unmarked) | 24.5%
CC(NC(=O)c1cnccn1)c1ccc(S(N)(=O)=O)cc1 (centres unmarked) | -2.33%
Cc1ccc(CN2CCN(/N=C/c3ccc(N(C)C)cc3)CC2)cc1 | 10.1%
COc1ccc(C)cc1S(=O)(=O)N1CCCC(N2CCOCC2)C1 (centres unmarked) | 13.4%
CCc1ccc(CCC(=O)Nc2ncc(Cc3ccccc3Cl)s2)o1 | 8.75%
CCOc1ccc(C)cc1S(=O)(=O)Nc1cccnc1 | 14.2%
COc1ccc(C(=O)OCC[N+]2(C)CCCCC2)cc1.[I-] | 10.4%
O=C1Nc2c(c(=O)[nH]c(=O)n2-c2ccccc2)C1(Nc1ncccn1)C(F)(F)F (centres unmarked) | 11%
COc1cc(N/N=C(\C)c2ccc(O)c(C)c2)nc(-c2ccccc2)n1 | -5.76%
CC(C)c1ccc(NC(=O)CSc2n[nH]c(=O)n2Cc2ccco2)cc1 | -28.7%
[O-]/C(=C(\C(=S)Nc1ccccc1F)[n+]1ccccc1)c1ccc(OC(F)F)cc1 | 1.92%
COC(=O)C(NS(=O)(=O)c1ccc(C)cc1)c1ccccc1 (centres unmarked) | 1%
CC(C)c1nccn1S(=O)(=O)c1cc([N+](=O)[O-])ccc1Cl | 9.72%
CC(C)Oc1ccc(/C=N/NC(=O)C(CSCc2ccccc2)NC(=O)c2ccc([N+](=O)[O-])cc2)cc1 (centres unmarked) | 8.54%
